Among the data in the RNAGym collection of RNA variant scans (doi:10.7554/elife.90254) are self-cleavage values, retold here.

The source gives no read counts; variants with many changes may rest on few reads.

B1: LINE1-mini (parent)
chain: GGCAGAGCUCAACACAGCGUGGCAAAGUGGCUGUGGCUAGACUGCC

In the data set the parent is B1. The experiment in a line: self-cleavage, relative activity (ratio to wild type); higher = more cleavage; in vitro, sequencing; the parent is a self-cleaving ribozyme.
As to U9A A16G G22A G35A, the self-cleavage worked out at 0.26. For the variant C8G U9A G19A A25G A26C U38G C42U G44U, the self-cleavage amounted to 0.18. The result for C8U A11G A26C U43A reads 0.01; that for U9A A11U C13U A24C U28A, 0.07; that for C8U C31G G36U, 0.15. Turning to C8U G17C U20C C31G A41C, the self-cleavage was found to be 0.01. Take U9A A26U G30C U32A G40A C46A: the self-cleavage was 0.36. Turning to U9A A16U C37G U38A, the self-cleavage stood at 0.04. On to C8G G29U G36U, for which the self-cleavage worked out at 0.03.

Turning to U9A G17A G22U C46A, the self-cleavage turned out to be 0.12.

In the case of U9A A14G A24C, the self-cleavage is 0.19.

As for C8U C13G C18A G19U, the self-cleavage came to 0.21. For U9A U28G A41G, the self-cleavage was 0.07.

With U9A G30U C46G, the self-cleavage turned out to be 0.07. Consider C8U G27U A41C, for which the self-cleavage is 0.13.

In the case of C8U G27C G30C U32G G33A, the self-cleavage was 0.16.

Take U9C A11G A14C: the self-cleavage is 0.01.

On to U9A G22A G30A C46G, for which the self-cleavage came to 0. With C8U U9A G17U G22U U32G, the self-cleavage came out at 0.04.

As for C8G G21U G36C, the self-cleavage was 0.28.

On to C8U A14C A16C C23A A26U U28C U43C, for which the self-cleavage stood at 0.22.

Take U9C A11C U32C G40U: the self-cleavage came to 0.04. Regarding C8G G33U C46A, the self-cleavage was determined as 0.07. Regarding C8G U20A A25G A41G, the self-cleavage came to 0.07. In the case of C8U G27A C37A G40U, the self-cleavage was 0.2.

For C8G U32G G40U C45A, the self-cleavage is 0.03. The result for C8U G22U C31G C37A reads 0.04.

Turning to C8U C15A G17A, the self-cleavage came to 0.68.

For the variant C8U G33C G40U A41C, the self-cleavage came to 0.06. In the case of U9A A12G A41G, the self-cleavage is 0.03. Consider C8U C15U G33U C46A, for which the self-cleavage stood at 0.02.

In the case of U9A C10U A11C A12G, the self-cleavage was found to be 0. C8U A12C C15U: the self-cleavage came out at 0.14. As for C8U A11C G17C, the self-cleavage amounted to 0.02.

Take U9C A12U U20C A41U: the self-cleavage stood at 0.01.

As to U9A G22A A26C G44U, the self-cleavage is 0.59. Regarding U9A A14C C23U G36U, the self-cleavage is 0.06. Consider C8G U32G G36C, for which the self-cleavage turned out to be 0.01. U9A A14U C23U C31A C46A: the self-cleavage came out at 0.1.

In the case of C8U G29U C46A, the self-cleavage is 0.14. For the variant U9C A12U G17A, the self-cleavage was determined as 0.02. As for C8U A11U G36C A39G A41U U43G, the self-cleavage was 0.01. For U9A A26C G29A U32C C42U, the self-cleavage stood at 0.51. The result for C8G U9G C10U reads 0.02.

With C8U G36C A41U, the self-cleavage was 0.18.

Turning to C8U C10U C13U C15G, the self-cleavage came out at 0.13.

As for C8U A16G U32C, the self-cleavage stood at 0.02. As for U9A G30U C45G, the self-cleavage was determined as 0.77. For U9A C31A G40C, the self-cleavage came out at 0.04. The result for U9C A12C C23A U32G A39U reads 0.01; that for C8U A16G A25U G30C G35U C42U, 0.01; that for C8U C10U G17C A25C G33A C45A, 0.06. Regarding U9A U20G C31U, the self-cleavage was determined as 0.13. As to U9A C18A U20C G27A C37G, the self-cleavage is 0.06. As to U9A C15U G22U, the self-cleavage turned out to be 0.33.

With U9A A12C C31U, the self-cleavage was 0.04. As to C8U U9G A16G G22A G30C C45U, the self-cleavage is 0.12. The result for C8U U20C A24C G29U U34C C37G reads 0.01.

Take C8U U9G C10A G19U: the self-cleavage worked out at 0.02. For the variant C8U U9G U43C, the self-cleavage worked out at 0.03. With C8U G30C G40C, the self-cleavage worked out at 0.07.

On to C8G U9G A14G A25G U38A, for which the self-cleavage turned out to be 0.05. In the case of U9C A16U C18U G22C A24G G29U, the self-cleavage amounted to 0.02.

Take C8G G27U G29A C31U G35U: the self-cleavage worked out at 0.06. For C8U G17U U20C, the self-cleavage is 0.15. As to U9C A14C C23A, the self-cleavage turned out to be 0.04. The result for C8U G27C U28A G30U reads 0.06; that for U9A G17A A24C G33A C45U C46U, 0.09; that for U9A C18U C37A, 0.21. Regarding U9A G19A G21A, the self-cleavage was found to be 0.16.

Turning to U9A G35C G36C C42U, the self-cleavage is 0.01. In the case of U9C A12U C42G G44U, the self-cleavage was 0.03. Take U9C A14U G19A C42U: the self-cleavage was 0.05. The result for C8U C13G G17U C23G U28A G35U G36C A41U reads 0.07; that for C8U C10U C18A C46A, 0.06; that for U9A C23A C42U, 0.03.

For the variant U9A A11G G17C, the self-cleavage is 0.04. Consider C8U A11G C15A G27U G40A, for which the self-cleavage amounted to 0.02. For the variant C8U C18A C42U, the self-cleavage stood at 0.04. For C8U A11C G40C, the self-cleavage came to 0.04. Regarding C8U C15U A25U U32A, the self-cleavage worked out at 0.02. For the variant U9A A11G G17U A25U, the self-cleavage was found to be 0.01. The result for C8U G22U G29U reads 0.16; that for C8G G29U C45U, 0.03. The result for C8U C37U A41U reads 0.5.

Regarding C8U G27C C31G, the self-cleavage is 0.09.

On to U9C A14U G33C C37G G40A, for which the self-cleavage is 0.04. For the variant U9A G17A C31U, the self-cleavage was found to be 0.01. The result for C8U C15U C18A A25U G29A C42G reads 0.18. The result for C8U C18G G44A reads 0.3; that for C8U C13A U34G, 0.85.

As to U9A A24G U32A, the self-cleavage was determined as 0.02. On to U9C A14U A41U, for which the self-cleavage turned out to be 0.02. Consider C8U A26C C31U, for which the self-cleavage came out at 0.1. The result for C8G U20A A26G G33C reads 0.03; that for C8U U28A C31U, 0.18.

In the case of C8G U43G G44A, the self-cleavage came to 0.04. Consider C8U G21U G36U, for which the self-cleavage amounted to 0.12. With U9A A14U A26U, the self-cleavage was 0.17.

As to C8U U20C G27U, the self-cleavage came out at 0.05. In the case of C8U C10A A24G C37G, the self-cleavage came out at 0.08. The result for C8U G22C G30C G36C reads 0.3; that for C8G U9G A11G C13A C37A G40U, 0.01; that for U9C A11G U34G, 0.02. As to C8U G29A G40A, the self-cleavage worked out at 0.32. As to C8G U20G G36C, the self-cleavage was determined as 0.05.

Take U9A C15U U32C: the self-cleavage worked out at 0.53.

Take U9A G17U U32G: the self-cleavage was 0.09. With C8U G22U A41C, the self-cleavage amounted to 0.26.

C8U G17C C18U U20C C31A U32G: the self-cleavage was 0.07. As for C8U G21U A25U G33C C37A C42G, the self-cleavage was 0.02. For the variant U9A G30U U34A G40U, the self-cleavage was 0.

With C8U G22U C23G A25G, the self-cleavage was determined as 0.17. The result for U9A C10A G27A G36A A41U reads 0.01. Take U9C A14C C31A C46A: the self-cleavage worked out at 0.03.

For the variant C8U C10G G22A U38A A39U G44U, the self-cleavage stood at 0.01. Take C8U G21U C46G: the self-cleavage was found to be 0. With U9A C15U A25U U32G U34A U43C, the self-cleavage was 0.56.

In the case of U9A A16U C23A A25G C45A, the self-cleavage came out at 0.05. U9A G36A G40U: the self-cleavage is 0.33. The result for U9A C10A U20C reads 0.03; that for C8U G17C A24U G27A, 0.11; that for C8U G22U U38G, 0.01.

Regarding C8U C13A A25G G30U G35U, the self-cleavage is 0.1. Regarding C8U G19A A26U G44C, the self-cleavage is 0.11. On to C8U G17C C42U U43A, for which the self-cleavage was 0.23. For U9A A24U U34C, the self-cleavage is 0.02. Consider C8U U9C G21U, for which the self-cleavage came to 0.06. For the variant U9C A12G C13G A41U, the self-cleavage was found to be 0.01. For U9A A12G A39U G44A, the self-cleavage is 0.01.

With C8U A11G C13U G29U G36C, the self-cleavage came out at 0.03. For U9C A11G C42G, the self-cleavage amounted to 0.02.

Take C8U G30C U38C: the self-cleavage was determined as 0.03. Regarding C8G G22U U34A, the self-cleavage stood at 0.13. In the case of C8U C10G A16G G33U, the self-cleavage came out at 0.01. As for U9A G36A C42U U43A, the self-cleavage worked out at 0.29. Regarding C8G U9G G22C A24U A25U U32C, the self-cleavage stood at 0.01. For the variant C8U U9C A24U, the self-cleavage was determined as 0.11. Regarding C8U C10A C13G C18A A25C, the self-cleavage was found to be 0.02. The result for C8U U9G G29U reads 0.1; that for C8G U9A U38A G40C G44A, 0.01; that for U9A C13A A24G A25C C42U, 0.24. U9A C15A C42G: the self-cleavage was 0.01.

With C8U G21U A25G C45U, the self-cleavage came out at 0.06. Consider U9A C18U C31U G44U, for which the self-cleavage stood at 0.03.

In the case of C8U G21A G33U U43C, the self-cleavage was found to be 0.11. With U9A C15A C18G, the self-cleavage turned out to be 0.1. Turning to C8U C18A G19A G27A G35U, the self-cleavage worked out at 0.61.

As for U9A U20C G21U U38A G44C, the self-cleavage was 0.02.

C8U G22A G33A G40C: the self-cleavage is 0. For C8U C10A G30U, the self-cleavage is 0.02. As for C8U U20G G22U C37U, the self-cleavage turned out to be 0.05. The result for U9C A16C C37G reads 0.02; that for C8U C13G C46U, 0.08; that for C8U C13G C46A, 0.06. As for C8U A26G G27C A41C, the self-cleavage turned out to be 0.03.

Take C8U A14G C15U C42A: the self-cleavage was determined as 0.14. Take C8U G27A C46A: the self-cleavage was determined as 0.32.

As to U9A A12U G17C A26C, the self-cleavage was 0.06. Turning to C8G U9C C23U, the self-cleavage was 0.04. Turning to C8U U34G C37G, the self-cleavage turned out to be 0. As to U9A G17U G21A C23A U28G G29C U38A, the self-cleavage was determined as 0.14.

As for U9A G22A G27A, the self-cleavage was found to be 0.02. With C8U A24C G33A G44A, the self-cleavage was found to be 0.51. U9C A14C U20C C23A G29U: the self-cleavage turned out to be 0.01. The result for U9A A16G U20G C23G U28C G30U G35U G36A reads 0.03; that for C8U G22U G44A, 0.04.
